# Laboratory results reported in patent US11471507B2, “HMGB1 antagonist” (THE FEINSTEIN INSTITUTES FOR MEDICAL RESEARCH, priority 2019, dated 2022).
# Tests used:
# [1] = test system: influenza virus, strains A/PR/8/34 (PR8); settings: given daily for five days beginning two days after influenza infection; cited from earlier work
# [2] = test system: influenza virus, strains A/PR/8/34 (PR8); experiment: Influenza infection lethality; type: in vivo, C57BL/6J mice; settings: 100 ug/mouse IP for 5 consecutive days from day 2, 14 days
Structure (SMILES),reduction of mortality [1],clinical scores [2],survival [2]
NC(=O)[C@H](CCC(=O)O)NC(=O)[C@H](CO)NC(=O)[C@H](CO)NC(=O)[C@@H](N)Cc1ccccc1 [P5779],approximately 9 fold,,
NC(=O)N(CCC(=O)O)NC(=O)[C@H](CO)NC(=O)[C@H](CO)NC(=O)N(N)Cc1ccccc1 [K883],,lowered clinical scores,significant survival
